Patent publication US9303026B2, “Antiviral agents” (Biota Scientific Management Pty Ltd, priority 2000, dated 2016)

Tested on: HRV type 1A
Test: Inhibition of viral cytopathic effect (CPE), HRV type 1A in MRC-5 cells
Format: cell-based
Conditions: Human rhinovirus sp., HRV1A, MRC5, Table 7, MRC-5 cells infected with HRV type 1A

**Q.** How did the IC50 turn out when CSc1nc2ccc(OCCC3CCN(c4ccc(C)nn4)CC3)cc2o1 [Compound 4, 6-{2-[1-(6-Methyl-3-pyridazinyl)-4-piperidinyl]ethoxy}-2-methylthiobenzoxazole] was run?
**A.** 6 ng/mL (≈ 0.0156 µM)

≈ marks a conversion by molar mass, not a printed value.
